B1: CUGAGCA (DNA:RNA)
RNA: GGGAGACCGGAAUUCAGAUUGUCCCUGAGCAUUAAAUCCCGUCGUAGCCACCA
DNA 1: CAATCTGAATTCCGGTCTCCC
DNA 2: TGGTGGCTACGACGGGATT
B2: AGAAAGG (DNA:RNA)
RNA: B1 RNA with C25A, U26G, G27A, G29A, C30G, A31G
DNA 1: CAATCTGAATTCCGGTCTCCC
DNA 2: TGGTGGCTACGACGGGATT
B3: ACCUAAC (DNA:RNA)
RNA: GGGAGACCGGAAUUCAGAUUGUCCACCUAACUUAAAUCCCGUCGUAGCCACCA
DNA 1: CAATCTGAATTCCGGTCTCCC
DNA 2: TGGTGGCTACGACGGGATT
B4: GUAGCGA (DNA:RNA)
RNA: B1 RNA with C25G, G27A, A28G, G29C, C30G
DNA 1: CAATCTGAATTCCGGTCTCCC
DNA 2: TGGTGGCTACGACGGGATT
B5: GAAACAG (DNA:RNA)
RNA: B3 RNA with A25G, C26A, C27A, U28A, A29C, C31G
DNA 1: CAATCTGAATTCCGGTCTCCC
DNA 2: TGGTGGCTACGACGGGATT
B6: AUCUAGG (DNA:RNA)
RNA: B3 RNA with C26U, A30G, C31G
DNA 1: CAATCTGAATTCCGGTCTCCC
DNA 2: TGGTGGCTACGACGGGATT
B7: ACUAACU (DNA:RNA)
RNA: B3 RNA with C27U, U28A, A30C, C31U
DNA 1: CAATCTGAATTCCGGTCTCCC
DNA 2: TGGTGGCTACGACGGGATT
B8: UGUACGC (DNA:RNA)
RNA: B3 RNA with A25U, C26G, C27U, U28A, A29C, A30G
DNA 1: CAATCTGAATTCCGGTCTCCC
DNA 2: TGGTGGCTACGACGGGATT
B9: UAUUCAA (DNA:RNA)
RNA: B3 RNA with A25U, C26A, C27U, A29C, C31A
DNA 1: CAATCTGAATTCCGGTCTCCC
DNA 2: TGGTGGCTACGACGGGATT

Positions count from the first letter of the chain named. The list shows a part of the results.

This assay deals with T1, RBFOX1 RRM (Homo sapiens, UniProt Q9NWB1 109-208).
T1 sequence: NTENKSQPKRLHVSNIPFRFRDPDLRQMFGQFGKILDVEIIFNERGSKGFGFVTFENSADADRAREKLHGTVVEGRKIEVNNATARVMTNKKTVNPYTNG
The assay can be described thus: EMSA; HiTS-Eq, 1 nM pool, 10 min; buffer printed only for the single-RNA assays: 10 mM Tris pH 7.5, 150 mM NaCl, 3.4 mM EDTA, 0.001% NP-40, 30 C. The following applies: tags: His6 N-terminal (pET28a); label: 5' 32P. Summed up: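 Relative association constants, normalised to the cognate motif, were derived by comparing read counts of each RNA species with those of the control reaction. The RNA sequenced was the free fraction, separated by 8% native PAGE after a 10 min equilibration in 50 µL of 1 nM 5′-radiolabelled RNA (7 randomized nucleotides) with increasing concentrations of purified wild-type or mutant RbFox RRM.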
Background: In EMSA bound probe runs differently from free probe, usually more slowly.
With B1, the binding signal was 0.0155 KA relative to UGCAUGU.

As for B2, the binding signal is 0.0121 KA relative to UGCAUGU.

As for B3, the binding signal is 0.000932 KA relative to UGCAUGU.

Take B4: the binding signal is 0.0119 KA relative to UGCAUGU.

For B5, the binding signal was 0.00679 KA relative to UGCAUGU.

For the molecule B6, the binding signal was 0.00742 KA relative to UGCAUGU.

Consider B7, for which the binding signal was 0.00125 KA relative to UGCAUGU.

On to B8, for which the binding signal is 0.0109 KA relative to UGCAUGU.

With B9, the binding signal was 0.00989 KA relative to UGCAUGU.

(Values after article PMC9911399, “Two distinct binding modes provide the RNA-binding protein RbFox with extraordinary sequence specificity”.)
